Test results reported in PubChem BioAssay AID1159614 (National Center for Advancing Translational Sciences (NCATS), 2016).
Among all 45,000 compounds or so, about 65 (0.1%) were called active. Calls follow the shape of the dose curve; as a rule, active = well fitted activation curve with a large enough effect; inconclusive = small, poorly fitted or top-dose-only effect; inactive = no such curve, though single readings can be large or run the other way. The list shows a part of the results.

Molecular target: Galactocerebrosidase (Homo sapiens) (UniProt P54803)
Chain of UniProt P54803 (P54803 whole entry, looked up): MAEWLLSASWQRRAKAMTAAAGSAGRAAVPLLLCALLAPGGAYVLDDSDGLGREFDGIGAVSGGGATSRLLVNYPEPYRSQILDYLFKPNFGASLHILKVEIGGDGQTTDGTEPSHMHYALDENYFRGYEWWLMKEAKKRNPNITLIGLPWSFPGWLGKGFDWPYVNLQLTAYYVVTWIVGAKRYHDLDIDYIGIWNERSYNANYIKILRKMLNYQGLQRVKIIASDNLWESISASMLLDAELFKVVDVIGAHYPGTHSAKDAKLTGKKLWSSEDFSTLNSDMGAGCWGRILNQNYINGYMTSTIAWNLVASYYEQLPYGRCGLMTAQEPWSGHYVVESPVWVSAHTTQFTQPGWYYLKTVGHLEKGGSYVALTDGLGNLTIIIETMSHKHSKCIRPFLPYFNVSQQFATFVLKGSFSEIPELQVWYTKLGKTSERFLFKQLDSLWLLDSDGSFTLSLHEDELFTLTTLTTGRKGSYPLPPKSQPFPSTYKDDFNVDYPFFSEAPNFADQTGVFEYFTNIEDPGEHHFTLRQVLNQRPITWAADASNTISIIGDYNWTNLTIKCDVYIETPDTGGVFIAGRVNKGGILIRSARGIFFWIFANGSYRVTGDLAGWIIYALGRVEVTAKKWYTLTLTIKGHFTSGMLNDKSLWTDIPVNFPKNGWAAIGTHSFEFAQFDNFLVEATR
Assay: A Novel Cell-Based Assay to Identify Small Molecules for B -Galactocerebrosidase; also: 0% is about no effect; nearly all actives have a fitted effect of over 65% in size
Conditions: 145M-Twi-hGALC-G270D cells (Twitcher mouse brain line with human GALC G270D), HMU-beta-Gal fluorescence, 48 h; series mostly up to 57.5 µM; activation: at the top concentration
Procedure, shortened: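 Mutant human GALC (G270D), stably expressed in a Twitcher mouse brain cell line lacking endogenous GALC, is measured in live-treated cells via 6-hexadecanoylamino-4-methylumbelliferyl-β-galactoside hydrolysis (0.1 mM final, pH 5.2) with fluorescent detection.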

activation, inactive:
CCOc1ccc(Cl)cc1CNCCCSc1nnnn1C -10.9%, CCOc1ccc(NC(=O)C2CCCN(c3cnccn3)C2)cc1 (stereo not drawn) -2.74%, CCCCCOC(=O)Nc1nc(=O)n([C@@H]2O[C@H](C)[C@@H](O)[C@H]2O)cc1F -10.6%, Cc1ccc(CN(C(=O)COc2ccccc2[N+](=O)[O-])c2ccccn2)cc1 -23.3%, COC(=O)c1ccccc1NC(=O)c1cnn(-c2ccc(F)cc2)c1-n1cccc1 9.27%, CCOc1ccc(-n2nc(CO)c(C(=O)NCc3ccccn3)n2)cc1 -4.23%, CCCN(CCC)CCNC(=O)CN1C(=O)COc2ccc(S(=O)(=O)N3CCOCC3)cc21 -9.66%, O=C(NCc1ccccc1Cl)C1CCN(C(=O)N2CCOc3ccccc32)CC1 -9.41%, Cc1cccc(OCC(=O)NCCc2nc3ccccc3[nH]2)c1C -9.63%, CCC(CC)C(=O)Nc1nnc(S(=O)(=O)N2CCc3ccccc32)s1 -4.37%, COc1ccc(NC(=O)Cn2c(=O)c3cccn3c3ccccc32)cc1Cl -11.8%, O=C(Nc1ccc(-c2nc3ccccc3o2)c(O)c1)c1ccccc1 -8.74%, Cc1ccc(-c2nnc(Nc3ccc(C(N)=O)cc3)c3ccccc23)cc1S(N)(=O)=O -16.3%, CCOC(=O)c1noc2ncnc(Nc3cc(Cl)c(OC)cc3OC)c12 -18.4%, COc1cccc2sc(NC(=O)c3ccc(S(=O)(=O)N4CCC(C)CC4)cc3)nc12 -22.5%, CCN1CCN(CCCNC(=O)CS(=O)(=O)Cc2nc(-c3ccccc3C)oc2C)CC1 -7.57%, COc1ccc(N2CCN(C(=O)C3CCN(S(=O)(=O)c4cccc5nonc45)CC3)CC2)cc1 -2.55%, Cc1cc(C)cc(NC(=O)c2ccc3oc(=O)c(S(=O)(=O)c4ccc(F)cc4)cc3c2)c1 -20.1%, CCOc1ccc(CNCc2c(C(=O)O)c(C)n(Cc3ccc(C)cc3)c2C)cc1 -11.1%, Cc1nnc(N2CCCC(C(=O)NCCN(C)C)C2)c2nn(-c3ccccc3)c(C)c12 (stereo not drawn) -8.8%, CCOc1ccccc1OCCCCn1c(-c2ccc(Cl)cc2)nc2ccccc2c1=O -7.98%, COc1ccc(C)cc1NC(=O)Nc1cc(C(=O)NCc2ccc(C)cc2)ccc1N1CCCC1 -30.4%, Cc1sc(-c2cc3ccccc3oc2=O)nc1-c1ccc(Cl)c(Cl)c1 -18.5%, COc1ccc(-c2nc3sc(CCNC(=O)Cc4ccc(F)cc4)c(C)n3n2)cc1 2.28%, Cc1ccc(-n2ncc3c(N(C)C)ncnc32)cc1Cl -19.7%, CCC(Sc1nc(-c2ccccc2)[nH]c1S(=O)(=O)c1ccc(C)cc1)C(=O)O (stereo not drawn) -6.58%, Cc1cc(=O)n(Cc2ccc(F)cc2Cl)c2c1c(C)nn2C -7.54%, CC(C)c1ccc(-c2noc(SCC(=O)N3CCCCC3C)n2)cc1 (stereo not drawn) -11%, O=C(NCCCN1CCN(c2ccc(F)cc2)CC1)c1cc2c(Cl)nc3ccccc3c2s1 -0.648%, Cc1cccc(-c2nc(CCNC(=O)c3ccc(Br)o3)cs2)c1 -8.03%, Cc1cc(C)cc(OC(=O)c2cc(-c3ccc(Cl)cc3)on2)c1 -9.69%, CCCCCN1C(C(=O)c2ccccc2)=C(NC(=O)c2ccc(C)cc2)c2ccccc2S1(=O)=O -22.2%, CC1CCc2onc(C(=O)N3CCN(c4ccc(F)cc4)CC3)c2C1 (stereo not drawn) -10.2%, CCOc1ccc(NC(=O)c2c(NCc3cccnc3)sc3c2CCC(C)C3)cc1 (stereo not drawn) -9.05%, CCN1CCN(C(=O)c2cnn(-c3ccc(F)cc3F)c2C2CCN(C(=O)OC(C)(C)C)CC2)CC1 -0.916%, CC(=O)c1sc(NC(=O)c2c(-c3ccccc3)c(-c3ccccc3)nn(C)c2=O)nc1C -0.472%, CCN(CC)C(=O)Cn1c(=O)n(-c2ccc(C)c(C)c2)c(=O)c2c(C)c(C(=O)N(CC)CC)sc21 1.43%, COc1ccc(OC)c(NC(=O)c2cnc(Nc3ccc(C)c(Cl)c3)c3ccccc23)c1 -7.47%, CC(=O)c1ccc(O)c(C(N)=O)c1 -4.66%, CC1=C(C(=O)Nc2ccc(Cl)cc2)C(c2cccs2)n2nc(SCc3cccc(C)c3)nc2N1 (stereo not drawn) -4.72%, O=C(CSc1nc2cc3ccccc3cc2[nH]1)Nc1ccc(F)cc1 -19.2%, CC(C)(C)OC(=O)N1CCC(c2c(C(=O)N3CCN(c4ccccc4F)CC3)cnn2-c2ccccc2Cl)CC1 -6.34%, Cc1ccc(NC(=O)c2cnc(SCC(=O)N3CCCc4ccccc43)n(C)c2=O)cc1 -3.84%, CC(=O)Nc1c(C)nn(-c2ccccc2)c1N1CCC(C(=O)NCc2cccc(Cl)c2)CC1 -1.2%, COc1cc(Cl)c(NC(=O)CCc2nc3cccnc3n2-c2ccccc2)c(OC)c1 -6.81%, CCOc1ccc(NC(=O)CCNS(=O)(=O)c2ccc3c(c2)CCCC(=O)N3)cc1 -25.1%, CCOc1ccc(N(C)S(=O)(=O)c2cc(-c3cc(C)no3)ccc2OC)cc1 -42.6%, COC(=O)c1c(NC(=O)COc2ccc(C)cc2Br)sc2c1CCCC2 -21.9%, Cc1cccc(NC(=O)C2CCCN(S(=O)(=O)c3ccc4c(c3)oc(=O)n4C)C2)c1C (stereo not drawn) -7.79%, CC(O)(P(=O)(O)O)P(=O)(O)O -16.3%, CCCCCCCCCCCCCC(=O)OC(C)C -14.7%, CCc1ccccc1NC(=O)CN1C(=O)C2CCCN2c2ccc(S(=O)(=O)N(CC)CC)cc21 (stereo not drawn) -29.5%, COc1cccc(N2C(=O)C(CC(=O)Nc3ccccc3)N(CCc3sccc3C)C2=O)c1 (stereo not drawn) -6.36%, Cc1c(CNC2CCC(C)CC2)c(C(=O)O)c(C)n1Cc1ccc(Cl)cc1 (stereo not drawn) -17.4%, CCOC(=O)C(CC)Sc1ncnc2c1c(-c1ccccc1)cn2-c1ccc(OC)cc1 (stereo not drawn) -11.3%, CCn1c(=O)c2cc(C(=O)NCc3ccc(F)cc3Cl)sc2c2ccccc21 -8.47%, Cc1ccc(C)c(N(C)C(=O)c2cc3c(s2)-c2ccccc2OC3)c1 11%, Cc1cc(=O)n(CC(=O)N2CCCc3ccccc32)c2c1c(C)nn2-c1cccc(F)c1 2.14%, Cc1cc(C)c(OCC(=O)N(Cc2ccc(N(C)C)cc2)CC2CCCO2)c(C)c1 (stereo not drawn) -4.77%, O=C(NCCc1ccc(F)cc1)C(=O)NCC(c1cccs1)S(=O)(=O)c1ccc(Cl)cc1 (stereo not drawn) -3.84%, CCS(=O)(=O)N1CC(=O)N(c2ccc(Cl)cc2C)C(C)(C(=O)NC2CCCCC2)C1 (stereo not drawn) -14.1%, O=C(CSc1nnc(-c2ccccc2)c(-c2ccccc2)n1)NCCc1ccccc1 4.34%, CN1C(=O)CC(C(=O)Nc2ccc(C(=O)O)cc2)SC1=Nc1ccc(Cl)cc1 (stereo not drawn) 6.74%, Cn1c(=O)c2c(nc(NCCCCO)n2Cc2ccccc2Cl)n(C)c1=O -14.9%, COc1ccc(C(=O)Nc2nnc(SCc3cc(=O)c4cccc(F)c4[nH]3)s2)cc1 -14.5%, CCc1cccc(C)c1NC(=O)CCCn1c(C)c2cnn(-c3ccccc3)c(=O)c2c1C -9.79%, CCCN(C(=O)Cc1nc(-c2ccc(OC)cc2)no1)c1ccccc1C -24%, Cc1cccc(N(C)C(=S)Oc2ccc3c(c2)C2CCC3C2)c1 (stereo not drawn) 4.31%, CCC(C)NC(=O)Cn1c(=O)n(CCCCCC(=O)Nc2ccccc2)c(=O)c2sccc21 (stereo not drawn) -15.7%, CCOC(=O)c1[nH]c(C)c(CCC(=O)Nc2ccccc2OCC)c1C -5.43%, CCCCOC(=O)c1ccc(OC(=O)c2sc3ncn(Cc4cccc(F)c4)c(=O)c3c2C)cc1 -7.46%, CCn1c2ccccc2c2cc(CN3CCN(Cc4ccc(Cl)cc4)CC3)ccc21 -5.5%, CC(=O)c1ccc(NC(=O)C(C)n2nc(-c3ccccc3)ccc2=O)cc1 (stereo not drawn) -10.8%, CCN(CC)CCCNC(=O)Cn1ncc2c3ccccc3n(Cc3ccccc3)c2c1=O -1.97%, CCN(CC)c1ccc(NS(=O)(=O)c2cc(-c3onc(C)c3C)ccc2OC)c(C)c1 -4.11%, Cc1ccc2c(=O)cc(C(=O)Nc3ccc(S(=O)(=O)N4CCCCC4C)cc3)oc2c1C (stereo not drawn) -8.72%, CC(=O)Nc1cc(C(=O)NCc2ccc(F)cc2)ccc1S(=O)(=O)c1ccc(C)cc1 -8.36%, COc1cc2[nH]c(=O)[nH]c(=O)c2cc1OC -12.8%, COc1cccc(-c2nnc(SCC(=O)N(C)c3ccccc3)o2)c1 -17.8%, Cc1cccc(C)c1NC(=O)Cn1cc(C(=O)c2ccco2)c2ccccc21 -17.8%, O=C(Cn1ncc2c3ccccc3n(Cc3cccc(Cl)c3)c2c1=O)NCCCc1ccccc1 -15%, COc1ccc(-c2c(C)nn3c(-c4ccccc4)cc(C)nc23)cc1OC -26%, CCc1nc(Nc2ccc(F)c(Cl)c2)c2c3c(sc2n1)CCCC3 -4.71%, Cc1cc(C)n(C(C)CC(=O)Nc2cccc(C#N)c2)n1 (stereo not drawn) -17.6%, Cc1ccc2oc(-c3ccc(Cl)cc3)c(O)c(=O)c2c1 -7.26%, CCOc1ccc(-c2nn(-c3ccc(F)cc3)c3c2cnc2ccc(F)cc23)cc1 0.404%, Cc1cc(O)c(C(c2ccccc2)N2CCN(c3ccccc3)CC2)c(=O)n1Cc1ccco1 (stereo not drawn) -16%, Cc1nc2cc(C(=O)NCCC3=CCCCC3)ccc2n1-c1ccc(Br)cc1 -13.8%, Cc1ccc(-n2c(=O)c3ccc(C(=O)NCc4ccccc4Cl)cc3n(CC(=O)Nc3cccc(Cl)c3)c2=O)cc1 -1.56%, Cc1cc(C)c(NC(=O)CCN2C(=O)c3ccccc3Sc3ncccc32)c(C)c1 -20.7%, CCc1nn(CC(=O)NCC(C)c2ccccc2)c(=O)c2cc3occc3n12 (stereo not drawn) 15.2%, Cc1ncc(COP(=O)(O)O)c(C=O)c1O -4.92%, CCOc1ccc(C(=O)NCc2nnnn2-c2ccc(C)c(C)c2)cc1OCC -7.32%, CN(Cc1ccccc1)C(=O)C1CCN(S(=O)(=O)c2ccc3c(c2)oc(=O)n3C)CC1 -8.76%, CCOC(=O)CNC(=O)CSc1cn(CC(=O)N2CCCCCC2)c2ccccc12 -24.6%, Cc1cccc(C(=O)Nc2nnc(S(=O)(=O)N(C)Cc3ccc(Cl)cc3)s2)c1 2.04%, O=C1COc2ccc(-c3cc(-c4ccc(Cl)cc4)c4c(n3)-c3ccccc3OC4)cc2N1 -1.46%, CCCCCNC(=O)c1ccc2c(c1)ncn2-c1cccc(C)c1 -8.82%
